Reference: PubChem BioAssay AID1347165 (National Center for Advancing Translational Sciences (NCATS), 2019)
The campaign covered roughly 220,000 compounds. About 5,700 (2.6%) were called active. The shares of active, inactive and inconclusive entries below differ from those in the screen. Calls follow the shape of the dose curve; as a rule, active = well fitted inhibition curve with a large enough effect; inconclusive = small, poorly fitted or top-dose-only effect; inactive = no such curve, though single readings can be large or run the other way. Potencies of inconclusive entries are doubtful fits and often do not repeat.

target: Lysine-specific demethylase 5B (Homo sapiens) (UniProt Q9UGL1); experiment: Primary screen for KDM5B Histone Demethylases FDH-coupled qHTS; conditions: FDH-coupled NADH fluorescence (FDH is formaldehyde dehydrogenase); activity change, negative = inhibition: at 57.7 µM (top of the series) unless noted; also: nearly all actives have a fitted effect of over 70% in size; as to activity change, negative = inhibition: 0% is about no effect
Outline: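 Coupled FDH/NAD⁺ fluorescence readout. KDM5BΔAP 200 nM final; compound titration, 10 min RT preincubation; substrate mix 12.5 µM H3K4me3, 25 µM 2-OG, 50 µM Fe(II), 100 µM ascorbate, 0.25 mM NAD⁺, 0.25 U/mL FDH; ΔRFU over 30 min.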
Potency is read from the fitted curve at half-maximal effect; tags tell the direction and shape of the fitted curve.

Sequence of UniProt Q9UGL1 (Q9UGL1 whole entry, looked up): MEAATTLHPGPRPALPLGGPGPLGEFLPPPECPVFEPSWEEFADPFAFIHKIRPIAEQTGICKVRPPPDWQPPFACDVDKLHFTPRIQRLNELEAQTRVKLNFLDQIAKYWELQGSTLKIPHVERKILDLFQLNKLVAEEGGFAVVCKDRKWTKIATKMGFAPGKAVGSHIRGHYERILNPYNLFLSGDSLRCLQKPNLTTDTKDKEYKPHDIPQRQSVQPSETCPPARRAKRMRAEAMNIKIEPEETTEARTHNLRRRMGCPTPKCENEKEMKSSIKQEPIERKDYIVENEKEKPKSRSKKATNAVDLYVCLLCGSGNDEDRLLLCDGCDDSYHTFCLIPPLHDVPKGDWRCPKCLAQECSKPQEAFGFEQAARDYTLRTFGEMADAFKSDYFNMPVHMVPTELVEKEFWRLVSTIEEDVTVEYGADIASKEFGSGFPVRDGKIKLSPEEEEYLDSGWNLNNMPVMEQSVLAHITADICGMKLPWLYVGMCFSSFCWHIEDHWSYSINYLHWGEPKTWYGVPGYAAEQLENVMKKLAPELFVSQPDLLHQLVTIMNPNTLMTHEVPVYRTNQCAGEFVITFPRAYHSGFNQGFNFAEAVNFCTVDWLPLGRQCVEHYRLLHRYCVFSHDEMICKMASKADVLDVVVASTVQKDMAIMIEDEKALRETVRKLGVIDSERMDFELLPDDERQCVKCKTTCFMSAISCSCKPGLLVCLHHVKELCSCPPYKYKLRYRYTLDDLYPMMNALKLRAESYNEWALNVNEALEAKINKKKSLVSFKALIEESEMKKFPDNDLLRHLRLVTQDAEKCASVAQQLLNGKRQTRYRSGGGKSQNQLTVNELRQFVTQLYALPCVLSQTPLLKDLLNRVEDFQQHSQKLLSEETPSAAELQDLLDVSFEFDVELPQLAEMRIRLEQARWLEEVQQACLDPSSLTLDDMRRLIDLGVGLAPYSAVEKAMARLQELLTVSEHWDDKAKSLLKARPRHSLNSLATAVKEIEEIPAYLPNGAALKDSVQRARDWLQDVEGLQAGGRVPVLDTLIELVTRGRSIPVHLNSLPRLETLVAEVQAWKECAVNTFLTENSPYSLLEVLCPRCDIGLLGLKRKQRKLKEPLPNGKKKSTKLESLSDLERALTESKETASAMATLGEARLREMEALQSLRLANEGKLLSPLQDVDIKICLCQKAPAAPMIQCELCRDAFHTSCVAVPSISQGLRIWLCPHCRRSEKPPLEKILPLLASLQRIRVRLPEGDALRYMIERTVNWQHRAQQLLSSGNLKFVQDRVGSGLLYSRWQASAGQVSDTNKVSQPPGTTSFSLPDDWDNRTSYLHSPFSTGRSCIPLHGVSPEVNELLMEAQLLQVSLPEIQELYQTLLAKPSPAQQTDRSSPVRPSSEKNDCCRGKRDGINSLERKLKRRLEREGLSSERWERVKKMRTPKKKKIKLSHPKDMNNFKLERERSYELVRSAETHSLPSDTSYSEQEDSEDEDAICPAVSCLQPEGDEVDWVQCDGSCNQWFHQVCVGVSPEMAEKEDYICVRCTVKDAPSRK

SMILES | Potency | activity change, negative = inhibition
COc1ccc(OC)c(CCNC(=O)CCn2c(=O)c3cccn3c3cccnc32)c1 | inconclusive: 39.8 µM [inhibitor, single point] | 
NC1(C(=O)N2CCOC(CC(c3ccccc3)c3ccccc3)C2)CC1 (stereo not given) | inconclusive: 12.6 µM [inhibitor, partial curve] | 
COCCN1CCCCCC(O)c2cc(C(=O)N3CCN(C4CCCCC4)CC3)ccc21 (stereo not given) | inconclusive: 12.6 µM [inhibitor, partial curve, poor fit] | 
CCOC(=O)N1CCC(NC(=O)c2cc3cc(C)ccc3[nH]2)CC1 | inconclusive: 12.6 µM [inhibitor, partial curve, poor fit] | 
CCCCN(c1ccccc1)c1ncnc2c1cnn2-c1ccc(Cl)cc1 | inconclusive: 35.5 µM [inhibitor, single point] | 
Cc1ccc(CN(Cc2ccco2)c2cnc(S(C)(=O)=O)nc2C(=O)Nc2ccc(Br)cc2)o1 | inconclusive: 11.2 µM [inhibitor, partial curve, poor fit] | 
Cc1noc(C2CC3(CCN(C(=O)c4nn(C)c5ccccc45)CC3)CN2C)n1 (stereo not given) | inconclusive: 35.5 µM [inhibitor, partial curve, poor fit] | 
CCCCNS(=O)(=O)c1ccc(OC)c2ncccc12 | inconclusive: 25.1 µM [inhibitor, partial curve, poor fit] | 
COCc1nn2c3c(cnc2c1-c1ccccc1)C(=O)CC(c1ccccc1)C3 (stereo not given) |  | inactive: -9.33%
O=C(NCCc1ccccc1)c1ccc(Cn2c(SCc3ccc(F)cc3)nc3cccnc32)cc1 | inconclusive: 31.6 µM [inhibitor, partial curve, poor fit] | 
O=C(NCc1cccc(Cl)c1)c1cccn1-c1nnc(N2CCCC2)s1 | inconclusive: 2.51 µM [inhibitor, partial curve, poor fit] | 
Cc1ccccc1Nc1c(-c2ccsc2)nc2c(C)cccn12 | inconclusive: 15.8 µM [inhibitor, partial curve, poor fit] | 
COc1ccc(CC(=O)NC2CCN(c3cc(-c4ccc(Cl)cc4)[nH]n3)C2)cc1 (stereo not given) | inconclusive: 12.6 µM [inhibitor, partial curve, poor fit] | 
CN1c2cc(C(=O)Nc3ccc(Cl)c(C(F)(F)F)c3)ccc2C(=O)N2CCCC21 (stereo not given) | inconclusive: 14.1 µM [inhibitor, partial curve, poor fit] | 
CCC(=O)N1N=C(c2cn(-c3ccccc3)nc2-c2ccc(OC)cc2)CC1c1ccco1 (stereo not given) |  | inactive: -4.99%
Cc1noc2c(-c3cccc(CO)c3)cc(-c3ccccc3)nc12 | inconclusive: 35.5 µM [inhibitor, partial curve, poor fit] | 
Cc1c(C)c2ccc(OCC(=O)NC3CC(C)(C)NC(C)(C)C3)cc2oc1=O | inconclusive: 11.2 µM [inhibitor, partial curve, poor fit] | 
CCOc1ccc(-c2cc3c(=O)n(Cc4nc(-c5cccc(OC)c5OC)oc4C)ccn3n2)cc1Cl | inconclusive: 0.794 µM [inhibitor, partial curve, poor fit] | 
COc1cccc(/C=C2\Sc3ccc(C(=O)NCc4cccnc4)cc3N(C)C2=O)c1 | inconclusive: 25.1 µM [inhibitor, single point] | 
CCOC(=O)CSC(C(N)=O)c1ccccc1 (stereo not given) |  | inactive: -8.92%
CCN(CC)C(CNS(=O)(=O)c1ccccc1)c1ccsc1 (stereo not given) |  | inactive: -2.66%
Cc1ccc(CNC(=O)c2cn(C)c3ccc(S(=O)(=O)N(C)C4CCCCC4)cc3c2=O)cc1 | inconclusive: 17.8 µM [inhibitor, partial curve, poor fit] | 

SMILES | Potency | activity change, negative = inhibition
Clc1ccc(COc2cccc(CNc3nn[nH]n3)c2)c(Cl)c1 |  | inactive: -5.67%
c1cc(CNCc2ccc3c(c2)OCO3)c2cc[nH]c2c1 |  | inactive: 24.6%
Cc1ccc(Nc2cc(C)nc3c(C)c(C)ccc23)cc1 |  | inactive: -10.3%
Cc1c(C)n(CCCN2CCOCC2)c2ncn3nc(CSc4nc5ccccc5o4)nc3c12 |  | inactive: 7.69%
C=CCOc1cccc(/C=C(\C#N)c2nc3ccccc3[nH]2)c1 | inconclusive: 17.8 µM [inhibitor, partial curve, poor fit] | 
CCOc1ccc(CC(=O)NCCc2csc3nc(-c4ccccc4F)nn23)cc1 | inconclusive: 4.47 µM [inhibitor, partial curve, poor fit] | 
CCc1cc(=O)oc2cc(C)cc(OCC(=O)NC3CC(C)(C)NC(C)(C)C3)c12 | inconclusive: 22.4 µM [inhibitor, partial curve, poor fit] | 
CCOCCCNc1nc2c(c(=O)n(Cc3ccc(F)cc3)c(=O)n2C)n1C |  | inactive: 1.69%
CN1CCc2c(sc3ncn4nc(COc5ccc6ccccc6c5)nc4c23)C1 | inconclusive: 28.2 µM [inhibitor, partial curve, poor fit] | 
COc1ccc(-c2cc(C(=O)N3CCN(c4ccccc4OC)CC3)c3cc(C(C)C)ccc3n2)cc1 | inconclusive: 15.8 µM [inhibitor, partial curve, poor fit] | 
COC(=O)c1sccc1S(=O)(=O)N1CCN(c2cccc(C)c2C)CC1 | inconclusive: 12.6 µM [inhibitor, partial curve, poor fit] | 
CCCS(=O)(=O)N1CC(Oc2ccccc2-c2noc(C)n2)C1 | inconclusive: 22.4 µM [inhibitor, single point] | 
CC(OC(=O)c1cc(=O)[nH]c2ccccc12)C(=O)N(C)c1ccccc1 (stereo not given) | inconclusive: 31.6 µM [inhibitor, partial curve, poor fit] | 
O=C1CC(c2ccccc2)Cc2[nH]c(=O)c(-c3nc(-c4cccc(Cl)c4)cs3)cc21 (stereo not given) | inconclusive: 2.24 µM [inhibitor, partial curve, poor fit] | 
CC(C)(C(=O)NC1CCCCCC1)c1ccccc1 |  | inactive: 11.5%
CC(O)CSc1nc2c(c(=O)n(C)c(=O)n2C)n1Cc1ccc(Cl)cc1 (stereo not given) |  | inactive: 17.7%
COc1ccccc1-c1csc(N2N=C(C)CC2c2cc(OC)c(OC)c(OC)c2)n1 (stereo not given) | inconclusive: 31.6 µM [inhibitor, partial curve, poor fit] | 
N#Cc1nc(-c2ccc(F)cc2)oc1NC1CCCCC1 | inconclusive: 1.78 µM [inhibitor, partial curve, poor fit] | 
c1ccc(Cc2noc(-c3nc(-c4ccc5c(c4)OCO5)no3)n2)cc1 | active: 35.5 µM | 
CC1CN(C(=O)c2csc(-c3ccc(C(F)(F)F)cc3)n2)CCCO1 (stereo not given) |  | inactive: 9.5%
O=c1c2cc(-c3cccs3)nn2ccn1CC(O)c1ccccc1 (stereo not given) | inconclusive: 25.1 µM [inhibitor, single point] | 
N#C/C(=C/c1ccc(-c2ccccc2)cc1)C(=O)Nc1ccc(N2CCOCC2)cc1 |  | inactive: 15.6%

SMILES | Potency | activity change, negative = inhibition
Cc1cc(C)c(CNC(=O)c2cc(-c3ccccc3F)cc3c2OCCN3C(C)C)c(=O)[nH]1 | active: 31.6 µM | 
O=C(NNC(=S)NC(=O)c1ccccc1)c1ccncc1 | inconclusive: 20 µM [inhibitor, partial curve, poor fit] | 
O=C(O)c1ccnc(-c2ccnc(NCC(O)c3ccccc3Cl)n2)c1 (stereo not given) | inconclusive: 6.31 µM [inhibitor, partial curve, poor fit] | 
O=C1COc2ccc(OCC3CC3)nc2CN1Cc1ccc(C(F)(F)F)cc1 |  | inactive: 145% [at 86.2 µM]
Cc1ccccc1NC(=O)C1=Cc2sc3c(c2CS1)CCCC3 | inconclusive: 31.6 µM [inhibitor, partial curve, poor fit] | 
OC(CC#CCN1CCN(CC#CCC(O)(c2ccccc2)c2ccccc2)CC1)(c1ccccc1)c1ccccc1 | inconclusive: 22.4 µM [inhibitor, partial curve, poor fit] | 
COc1ccc(-c2cc(N3CCCN(C(=O)Cc4c[nH]c5ccccc45)CC3)n[nH]2)cc1 | inconclusive: 28.2 µM [inhibitor, single point] | 
CCn1c(SCC(=O)NCc2cccs2)nnc1-c1ccc2c(c1)OCCCO2 |  | inactive: 14.8%
CN1Cc2cccn2CC1CNC(=O)c1ccoc1 (stereo not given) | active: 28.2 µM | 
COc1cc(CNc2nc(-c3c(C)noc3C)cc3cc(C)oc23)cc(OC)c1 | active: 31.6 µM | 
COC(=O)c1cc(NC2(c3ccccc3)C(=O)c3ccccc3C2=O)cc(C(=O)OC)c1 | inconclusive: 22.4 µM [inhibitor, single point] | 
CCN(CC)c1ccc(NC(=O)CCCn2cnc3c2c(=O)n(C)c(=O)n3C)cc1 |  | inactive: 4.86%
COc1ccc(C(=O)N2CC(N(C)c3ccccc3C)C2)cc1 |  | inactive: -14.1% [at 86.2 µM]
N#Cc1ccc(S(=O)(=O)N2CCC(C(=O)N3CCCC3c3ccc4c(c3)OCCO4)CC2)cc1 (stereo not given) |  | inactive: 7.32%
COc1ccc(Nc2ncc(C(=O)Nc3cccc(OC)c3)c3ccccc23)cc1 | inconclusive: 35.5 µM [inhibitor, partial curve, poor fit] | 
COC(=O)c1cc(Cc2ccccc2)ccc1O | inconclusive: 39.8 µM [inhibitor, single point] | 
Cc1ccc(-c2cn3c(n2)CO[C@@H](CNC(=O)CCC(=O)O)C3)cc1 |  | inactive: -26.7% [at 86.2 µM]
COc1cc(C(=O)NC2CCCc3c2[nH]c2ccccc32)cc(OC)c1OC (stereo not given) | inconclusive: 10 µM [inhibitor, partial curve, poor fit] | 
Cc1ccc(S(=O)(=O)NC[C@H]2O[C@@H](CO)[C@@H](O)[C@H]2N2CCN(c3ncccn3)CC2)cc1 | inconclusive: 22.4 µM [inhibitor, partial curve] | 
CCOc1cc(CNC(=O)CSc2n[nH]c(-c3ccccc3)n2)cc(OCC)c1OCC |  | inconclusive: -30.2% [inhibitor]
CC(C)CCC1(C)NC(=O)N(Cc2cc(F)cc3cccnc23)C1=O (stereo not given) |  | inactive: 27.5%
